{"source": "the supplement of paper PMC8728848", "assay_in_all_cases": "glycan array binding signal (z-score within array); higher = stronger binding", "conditions_in_all_cases": "glycan notation: IUPAC condensed, linker removed", "key": {"[1]": {"biological_target": "Neu5Ac(a2-6)Gal(b1-4)GlcNAc(b1-2)Man(a1-3)[GlcNAc(b1-4)][Neu5Ac(a2-6)Gal(b1-4)GlcNAc(b1-2)Man(a1-6)]Man(b1-4)GlcNAc(b1-4)GlcNAc", "how_it_was_run": "(§1)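 Arrays were curated from the Consortium for Functional Glycomics database, 3228 in total, and kept only where the protein sequence was available. Binding is expressed as a within-array Z-score. This score was averaged across arrays of the same protein sequence at different concentrations or buffers and across linkers, and negative values can be read as non-binding.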"}, "[2]": {"biological_target": "Neu5Ac(a2-6)Gal(b1-4)GlcNAc(b1-2)Man(a1-3)[Man(a1-6)]Man(b1-4)GlcNAc(b1-4)GlcNAc", "how_it_was_run": "as §1"}, "[3]": {"biological_target": "Neu5Ac(a2-6)Gal(b1-4)GlcNAc(b1-2)Man(a1-3)[Neu5Ac(a2-3)Gal(b1-4)GlcNAc(b1-2)Man(a1-6)]Man(b1-4)GlcNAc(b1-4)GlcNAc", "how_it_was_run": "as §1"}, "[4]": {"biological_target": "Neu5Ac(a2-6)Gal(b1-4)GlcNAc(b1-2)Man(a1-3)[Neu5Ac(a2-6)Gal(b1-4)GlcNAc(b1-2)Man(a1-6)]Man(b1-4)GlcNAc(b1-4)GlcNAc", "how_it_was_run": "as §1"}, "[5]": {"biological_target": "Neu5Ac(a2-6)Gal(b1-4)GlcNAc(b1-2)Man(a1-3)[Neu5Ac(a2-6)Gal(b1-4)GlcNAc(b1-2)Man(a1-6)]Man(b1-4)GlcNAc(b1-4)[Fuc(a1-6)]GlcNAc", "how_it_was_run": "as §1"}, "[6]": {"biological_target": "Neu5Ac(a2-6)Gal(b1-4)GlcNAc(b1-2)Man(a1-6)Man(b1-4)GlcNAc(b1-4)GlcNAc", "how_it_was_run": "as §1"}, "[7]": {"biological_target": "Neu5Ac(a2-6)Gal(b1-4)GlcNAc(b1-2)Man(a1-6)[Gal(b1-4)GlcNAc(b1-2)Man(a1-3)]Man(b1-4)GlcNAc(b1-4)GlcNAc", "how_it_was_run": "as §1"}, "[8]": {"biological_target": "Neu5Ac(a2-6)Gal(b1-4)GlcNAc(b1-2)Man(a1-6)[GlcNAc(b1-2)Man(a1-3)]Man(b1-4)GlcNAc(b1-4)GlcNAc", "how_it_was_run": "as §1"}, "[9]": {"biological_target": "Neu5Ac(a2-6)Gal(b1-4)GlcNAc(b1-2)Man(a1-6)[Man(a1-3)]Man(b1-4)GlcNAc(b1-4)GlcNAc", "how_it_was_run": "as §1"}, "[10]": {"biological_target": "Neu5Ac(a2-6)Gal(b1-4)GlcNAc(b1-2)[Neu5Ac(a2-6)Gal(b1-4)GlcNAc(b1-4)]Man(a1-3)[GlcNAc(b1-4)][Neu5Ac(a2-6)Gal(b1-4)GlcNAc(b1-2)[Neu5Ac(a2-6)Gal(b1-4)GlcNAc(b1-6)]Man(a1-6)]Man(b1-4)GlcNAc(b1-4)GlcNAc", "how_it_was_run": "as §1"}, "[11]": {"biological_target": "Neu5Ac(a2-6)Gal(b1-4)GlcNAc(b1-2)[Neu5Ac(a2-6)Gal(b1-4)GlcNAc(b1-4)]Man(a1-3)[GlcNAc(b1-4)][Neu5Ac(a2-6)Gal(b1-4)GlcNAc(b1-4)Man(a1-6)]Man(b1-4)GlcNAc(b1-4)GlcNAc", "how_it_was_run": "as §1"}, "[12]": {"biological_target": "Neu5Ac(a2-6)Gal(b1-4)GlcNAc(b1-2)[Neu5Ac(a2-6)Gal(b1-4)GlcNAc(b1-6)]Man(a1-6)[Neu5Ac(a2-6)Gal(b1-4)GlcNAc(b1-2)Man(a1-3)][GlcNAc(b1-4)]Man(b1-4)GlcNAc(b1-4)GlcNAc", "how_it_was_run": "as §1"}, "[13]": {"biological_target": "Neu5Ac(a2-6)Gal(b1-4)GlcNAc(b1-3)Gal(b1-3)GlcNAc", "how_it_was_run": "as §1"}, "[14]": {"biological_target": "Neu5Ac(a2-6)Gal(b1-4)GlcNAc(b1-3)Gal(b1-4)GlcNAc", "how_it_was_run": "as §1"}, "[15]": {"biological_target": "Neu5Ac(a2-6)Gal(b1-4)GlcNAc(b1-3)Gal(b1-4)GlcNAc(b1-2)Man(a1-3)[Neu5Ac(a2-6)Gal(b1-4)GlcNAc(b1-3)Gal(b1-4)GlcNAc(b1-2)Man(a1-6)]GalNAc", "how_it_was_run": "as §1"}, "[16]": {"biological_target": "Neu5Ac(a2-6)Gal(b1-4)GlcNAc(b1-3)Gal(b1-4)GlcNAc(b1-3)Gal(b1-4)GlcNAc", "how_it_was_run": "as §1"}, "[17]": {"biological_target": "Neu5Ac(a2-6)Gal(b1-4)GlcNAc(b1-3)Gal(b1-4)GlcNAc(b1-3)Gal(b1-4)GlcNAc(b1-2)Man(a1-3)[Neu5Ac(a2-6)Gal(b1-4)GlcNAc(b1-3)Gal(b1-4)GlcNAc(b1-3)Gal(b1-4)GlcNAc(b1-2)Man(a1-6)]GalNAc", "how_it_was_run": "as §1"}, "[18]": {"biological_target": "Neu5Ac(a2-6)Gal(b1-4)GlcNAc(b1-3)Gal(b1-4)GlcNAc(b1-3)GalNAc", "how_it_was_run": "as §1"}, "[19]": {"biological_target": "Neu5Ac(a2-6)Gal(b1-4)GlcNAc(b1-3)Gal(b1-4)GlcNAc(b1-3)[Neu5Ac(a2-6)Gal(b1-4)GlcNAc(b1-3)Gal(b1-4)GlcNAc(b1-6)]GalNAc", "how_it_was_run": "as §1"}, "[20]": {"biological_target": "Neu5Ac(a2-6)Gal(b1-4)GlcNAc(b1-3)Gal(b1-4)GlcNAc(b1-6)[Gal(b1-3)]GalNAc", "how_it_was_run": "as §1"}, "[21]": {"biological_target": "Neu5Ac(a2-6)Gal(b1-4)GlcNAc(b1-3)Gal(b1-4)[Fuc(a1-3)]GlcNAc(b1-3)Gal(b1-4)[Fuc(a1-3)]GlcNAc", "how_it_was_run": "as §1"}, "[22]": {"biological_target": "Neu5Ac(a2-6)Gal(b1-4)GlcNAc(b1-3)GalNAc", "how_it_was_run": "as §1"}, "[23]": {"biological_target": "Neu5Ac(a2-6)Gal(b1-4)GlcNAc(b1-3)[Neu5Ac(a2-6)Gal(b1-4)GlcNAc(b1-6)]GalNAc", "how_it_was_run": "as §1"}, "[24]": {"biological_target": "Neu5Ac(a2-6)Gal(b1-4)GlcNAc(b1-6)GalNAc", "how_it_was_run": "as §1"}, "[25]": {"biological_target": "Neu5Ac(a2-6)Gal(b1-4)GlcNAc(b1-6)[Gal(b1-3)GlcNAc(b1-3)]Gal(b1-4)Glc", "how_it_was_run": "as §1"}, "[26]": {"biological_target": "Neu5Ac(a2-6)Gal(b1-4)GlcNAc(b1-6)[Gal(b1-3)]GalNAc", "how_it_was_run": "as §1"}, "[27]": {"biological_target": "Neu5Ac(a2-6)Gal(b1-4)GlcNAc6S", "how_it_was_run": "as §1"}, "Neu5Ac(a2-6)GalNAc": {"biological_target": "Neu5Ac(a2-6)GalNAc", "how_it_was_run": "as §1"}, "[28]": {"biological_target": "Neu5Ac(a2-6)GalNAc(b1-4)GlcNAc", "how_it_was_run": "as §1"}, "[29]": {"biological_target": "Neu5Ac(a2-6)GalNAc(b1-4)GlcNAc6S", "how_it_was_run": "as §1"}, "[30]": {"biological_target": "Neu5Ac(a2-6)GlcNAc(b1-4)GlcNAc", "how_it_was_run": "as §1"}}, "note": "This is one part of the list.", "data": [{"binder": "Gal-9-hFc (Mus musculus), O08573-2 (protein) MALFSAQSPYINPIIPFTGPIQGGLQEGLQVTLQGTTKSFAQRFVVNFQNSFNGNDIAFHFNPRFEEGGYVVCNTKQNGQWGPEERKMQMPFQKGMPFELCFLVQRSEFKVMVNKKFFVQYQHRVPYHLVDTIAVSGCLKLSFITFQTQNFRPAHQAPMAQTTIHMVHSTPGQMFSTPGIPPVVYPTPAYTIPFYTPIPNGLYPSKSIMISGNVLPDATRFHINLRCGGDIAFHLNPRFNENAVVRNTQINNSWGQEERSLLGRMPFSRGQSFSVWIICEGHCFKVAVNGQHMCEYYHRLKNLQDINTLEVAGDIQLTHVQT", "values": [{"measurement": "glycan array binding signal (z-score)", "setting": "[1]", "value": -0.272}, {"measurement": "glycan array binding signal (z-score)", "setting": "[2]", "value": -0.184}, {"measurement": "glycan array binding signal (z-score)", "setting": "[3]", "value": -0.448}, {"measurement": "glycan array binding signal (z-score)", "setting": "[4]", "value": -0.491}, {"measurement": "glycan array binding signal (z-score)", "setting": "[5]", "value": -0.496}, {"measurement": "glycan array binding signal (z-score)", "setting": "[6]", "value": -0.192}, {"measurement": "glycan array binding signal (z-score)", "setting": "[7]", "value": -0.3}, {"measurement": "glycan array binding signal (z-score)", "setting": "[8]", "value": -0.384}, {"measurement": "glycan array binding signal (z-score)", "setting": "[9]", "value": -0.152}, {"measurement": "glycan array binding signal (z-score)", "setting": "[10]", "value": -0.332}, {"measurement": "glycan array binding signal (z-score)", "setting": "[11]", "value": -0.361}, {"measurement": "glycan array binding signal (z-score)", "setting": "[12]", "value": -0.34}, {"measurement": "glycan array binding signal (z-score)", "setting": "[13]", "value": -0.307}, {"measurement": "glycan array binding signal (z-score)", "setting": "[14]", "value": -0.506}, {"measurement": "glycan array binding signal (z-score)", "setting": "[15]", "value": -0.17}, {"measurement": "glycan array binding signal (z-score)", "setting": "[16]", "value": -0.424}, {"measurement": "glycan array binding signal (z-score)", "setting": "[17]", "value": 1.19}, {"measurement": "glycan array binding signal (z-score)", "setting": "[18]", "value": -0.341}, {"measurement": "glycan array binding signal (z-score)", "setting": "[19]", "value": 0.099}, {"measurement": "glycan array binding signal (z-score)", "setting": "[20]", "value": -0.199}, {"measurement": "glycan array binding signal (z-score)", "setting": "[21]", "value": -0.478}, {"measurement": "glycan array binding signal (z-score)", "setting": "[22]", "value": -0.362}, {"measurement": "glycan array binding signal (z-score)", "setting": "[23]", "value": -0.194}, {"measurement": "glycan array binding signal (z-score)", "setting": "[24]", "value": 1.04}, {"measurement": "glycan array binding signal (z-score)", "setting": "[25]", "value": -0.501}, {"measurement": "glycan array binding signal (z-score)", "setting": "[26]", "value": -0.318}, {"measurement": "glycan array binding signal (z-score)", "setting": "[27]", "value": -0.452}, {"measurement": "glycan array binding signal (z-score)", "setting": "Neu5Ac(a2-6)GalNAc", "value": -0.573}, {"measurement": "glycan array binding signal (z-score)", "setting": "[28]", "value": -0.667}, {"measurement": "glycan array binding signal (z-score)", "setting": "[29]", "value": -0.128}, {"measurement": "glycan array binding signal (z-score)", "setting": "[30]", "value": -0.408}]}]}
